# PubChem BioAssay (NCATS)
# This list was built around the results that the source calls inconclusive (neither active nor inactive); the mix of calls is not that of the screen. Where the call is inconclusive, the potency comes from a doubtful curve fit. Calls of active or inactive are those of the source. The call rests on the fitted dose curve; in most records, active means well fitted cell-killing curve with a large enough effect; inconclusive means small, poorly fitted or top-dose-only effect, or effect the other way; inactive means no such curve, though single readings can be large or run the other way.
# Experiment: Viability qHTS for spleen associated tyrosine kinase inhibitor (SYKi) naive MV4-11 cells (AID 1963823); further: nearly all actives have a fitted effect of over 40% in size
# Details: MV4-11 AML viability, CellTiter-Glo luminescence, 72 h; viability (% of control): at 45 µM (top of the series)
# Procedure, shortened: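 SYK inhibitor-naive MV4-11 cells, 500 per well, exposed to compounds for 72 hr at 37 C, 5% CO2. Viability read as CellTiter-Glo luminescence after 10 min at room temperature.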
# Potency means the concentration at half of the fitted maximal effect; tags describe the fitted curve by direction and shape.
Compound,Potency,viability (% of control)
CC(C)(Oc1ccc(Cl)cc1)C(=O)O,"inconclusive: 0.0596 µM [cytotoxic, full curve, poor fit]",–
C=C1CCC2C(C)(C(=O)O)CCCC2(C)C1CC/C(C)=C\CO (stereo unspecified),"inconclusive: 6.4 µM [cytotoxic, partial curve]",–
CCc1c(Cl)c(O)c(Cl)c(O)c1C(=O)O[C@H]1[C@H](O)[C@H](OC)[C@H](OC/C2=C\C=C\C[C@H](O)/C(C)=C\[C@H](CC)[C@@H](O[C@@H]3OC(C)(C)[C@@H](OC(=O)C(C)C)[C@H](O)[C@@H]3O)/C(C)=C/C(C)=C/C[C@@H]([C@@H](C)O)OC2=O)O[C@@H]1C,active: 7.09 µM,–
Nc1ccc(C(=O)NCC(=O)O)cc1,–,inactive: 78.9%
COc1ccc(NC(=O)c2ccc(-c3ccc(C(N)=O)cc3C)cc2)cc1N1CCN(C)CC1,"inconclusive: 18.4 µM [cytotoxic, partial curve]",–
C=C1CCC2C(C)(C(=O)OC)CCCC2(C)C1CCC(C)CC(=O)O (stereo unspecified),–,inactive: 63.9%
CC(=O)OC(C)OC(=O)C(C)c1ccc(-c2ccccc2)c(F)c1 (stereo unspecified),"inconclusive: 0.0106 µM [rising, full curve, poor fit]",–
C=C1CCC2C(C)(C)CCC[C@]2(C)[C@H]1CC/C(C)=C/C(=O)O (stereo partly specified),"inconclusive: 32.6 µM [cytotoxic, single point]",–
O=C(O)CC(C(=O)O)n1c(O)c(C2=c3cc(Br)ccc3=NC2=O)sc1=S (stereo unspecified),–,inactive: 67.5%
CCN(CC)CCOc1ccc(C(O)(Cc2ccc(Cl)cc2)c2ccc(C)cc2)cc1 (stereo unspecified),"inconclusive: 9.44 µM [cytotoxic, partial curve]",–
COC(=O)c1ccc(N2CCN(C)CC2)c(NC(=O)c2cccc(OC)c2)c1,–,inactive: 83.5%
Oc1ccc(C(O)CNCCCCCCNCC(O)c2ccc(O)c(O)c2)cc1O (stereo unspecified),–,inactive: 94.8%
CNC(=O)c1ccccc1Nc1nc(Nc2ccc(N3CCNCC3)cc2)ncc1Cl,"inconclusive: 0.0092 µM [cytotoxic, full curve]",–
CC1CCC2(C(=O)O)CCC3(C)C(=CCC4C5(C)CCC(OC(=O)/C=C/c6ccccc6)C(C)(C)C5CCC43C)C2C1C (stereo unspecified),–,inactive: 5.99% [at 17.3 µM]
C=C1CCC2C(C)(C(=O)O)CCCC2(C)C1CC/C(=C\CO)CO (stereo unspecified),–,inactive: 68%
CC1(C)CCC[C@]2(C)[C@H]3CC(=O)O[C@]3(C)CC[C@@H]12,–,inactive: 95.6%
